# Data taken from PubChem BioAssay AID886 (National Center for Advancing Translational Sciences (NCATS), 2007).
# “And” between values parts separate entries of the source, which are not always exact repeats. Equal entries are not always repeated. The whole screen tested about 73,000 compounds, of which about 2,500 (3.4%) were called active. The inconclusive results got no clear call from the source; some entries with a clear call stand among them for comparison. Calls follow the shape of the dose curve; as a rule, active = well fitted inhibition curve with a large enough effect; inconclusive = small, poorly fitted or top-dose-only effect; inactive = no such curve, though single readings can be large or run the other way. A potency beside an inconclusive call is a rough fit, not a confirmed value. Where a structure was tested more than once in an assay, its records may differ in their call.
# Molecular target: 3-hydroxyacyl-CoA dehydrogenase type-2 (Homo sapiens) (UniProt Q99714)
# Test: qHTS Assay for Inhibitors of HADH2 (Hydroxyacyl-Coenzyme A Dehydrogenase, Type II); also: nearly all actives have a fitted effect of over 60% in size
# Conditions: recombinant HADH2, NADH fluorescence, beta-hydroxybutyryl-CoA; series mostly up to 57.1 µM
# Outline: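 NADH fluorescence (ex 360/em 450 nm) read every 30 s for 4 min; activity taken as last-minus-first time point difference. Enzyme 20 nM, NAD+ 1 mM, beta-hydroxybutyryl-CoA 90 uM, pH 9.0 Tris buffer.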
# Potency is read from the fitted curve at half-maximal effect; tags tell the direction and shape of the fitted curve.
# Sequence of UniProt Q99714 (Q99714 whole entry, looked up): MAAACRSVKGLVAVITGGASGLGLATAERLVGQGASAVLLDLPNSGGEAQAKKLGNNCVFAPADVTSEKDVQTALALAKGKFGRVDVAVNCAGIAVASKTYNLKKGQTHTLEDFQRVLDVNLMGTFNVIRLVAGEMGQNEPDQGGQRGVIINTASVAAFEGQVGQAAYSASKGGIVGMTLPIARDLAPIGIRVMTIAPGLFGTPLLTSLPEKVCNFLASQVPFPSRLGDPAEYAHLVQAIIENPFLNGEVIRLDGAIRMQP
# Sequence of UniProt Q99714 (Q99714 whole entry, looked up): as above
row,SMILES,Potency
1,O=c1[nH]c(=O)n(Cc2ccco2)c(O)c1C=NCc1ccco1,"inconclusive: 31.6 µM [inhibitor, single point]"
2,CCCCC/C=C\C/C=C\C/C=C\C/C=C\CCCC(=O)NCC(=O)O,"inconclusive: 20 µM [inhibitor, single point]"
3,NC[C@@H]1O[C@@H](O[C@H]2[C@@H](O)[C@H](O[C@@H]3[C@H](O)[C@H](N)C[C@H](N)[C@H]3O[C@@H]3O[C@@H](CO)[C@H](O)[C@H](O)[C@@H]3N)O[C@H]2CO)[C@H](N)[C@H](O)[C@@H]1O,"inconclusive: 7.94 µM [inhibitor, single point]"
4,C[C@@H]1OC=C2[C@@H](O)[C@H]3O[C@H]3C(=O)[C@@]23[C@H]1[C@H]1C2=C([C@@H](O)[C@H]4O[C@@H]4C2=O)[C@@H]3O[C@@H]1C,"inconclusive: 3.16 µM [inhibitor, single point]"
5,CN(C)CCC=C1c2ccccc2CCc2ccccc21,"inconclusive: 7.94 µM [inhibitor, partial curve]"
6,COc1cc2c(cc1O)CCN[C@H]2C,"inconclusive: 39.8 µM [inhibitor, single point]"
7,C[C@]12CCC(=O)C=C1CC[C@@H]1[C@@H]2CC[C@]2(C)C(=O)CC[C@@H]12,active: 25.1 µM
8,CCC(C)NC(=O)c1c(N)n(CC2CCCO2)c2nc3ccccc3nc12 (configuration not stated),"inconclusive: 31.6 µM [inhibitor, single point]"
9,C=CCSC1=N/C(=C\c2cc(OC)c3c(c2)OCO3)C(=O)S1,"inconclusive: 39.8 µM [inhibitor, single point]"
10,COc1ccc(CCNC(=O)c2c(N)n(CCN3CCOCC3)c3nc4ccccc4nc23)cc1,"inconclusive: 39.8 µM [inhibitor, single point]"
11,N#CC1=C(N)Oc2n[nH]c(-c3cccs3)c2C1c1ccco1 (configuration not stated),"inconclusive: 12.6 µM [inhibitor, partial curve]"
12,CCCCn1c(O)c(C(CC)=Nc2cccc(C(=O)O)c2)c(=O)[nH]c1=O,"inconclusive: 31.6 µM [inhibitor, single point]"
13,N#C/C(=C\c1ccc(O)c(O)c1)C(N)=S,active: 1.26 µM and active: 100 nM
14,CN[C@H]1[C@H]2[C@H]3CCN2C[C@@H]1O3,inactive
15,CN(C(=O)Oc1cccc2cccnc12)c1ccccc1,inactive
16,O=C(NC1(C(F)(F)F)Oc2ccccc2O1)N1CCC2(CC1)OCCO2,active: 2.51 µM
17,COc1cc2c(cc1O)C[C@H]1c3c(cc(O)c(OC)c3-2)CCN1C,active: 12.6 µM and active: 31.6 µM
